Source: the supplement of paper PMC7125110
± gives the standard error. This sample is rich in variants without activity.

B1: glmS ribozyme (parent)
chain: AUAAAAGCGCCAGAACUACAGAAAUGUAGUUGACGAGGAGGAGGUUUAUCGAAUUUUCGGCGGAUGCCUCCAAA

Key:
Details in all cases: with glucosamine-6-phosphate
glucosamine-6-phosphate [1] = variants of: B1; assay: self-cleavage kobs at 40 uM GlcN6P; higher = faster cleavage; RNA array
In short: (§1)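 kobs was derived by fitting per-tile medians to one- or two-exponential decays after normalising signals to baseline and to non-cleaving reference variants. Those signals came from barcoded ribozyme variants transcribed in situ by E. coli RNA polymerase on sequenced MiSeq chips, followed through a hybridised Cy3 probe at 37 °C and imaged over ~14 h. Glucosamine-6-phosphate (40 μM to 10 mM) in HEPES/KCl/Mg(OAc)2 buffer was flowed in. Weighted Michaelis–Menten fits across concentrations then gave kcat and KM.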

glucosamine-6-phosphate [2] = variants of: B1; assay: self-cleavage kobs at 10000 uM GlcN6P; higher = faster cleavage; RNA array
In short: as §1

glucosamine-6-phosphate [3] = variants of: B1; assay: self-cleavage kobs at 160 uM GlcN6P; higher = faster cleavage; RNA array
In short: as §1

glucosamine-6-phosphate [4] = variants of: B1; assay: self-cleavage kobs at 640 uM GlcN6P; higher = faster cleavage; RNA array
In short: as §1

glucosamine-6-phosphate [5] = variants of: B1; assay: self-cleavage kobs at 2500 uM GlcN6P; higher = faster cleavage; RNA array
In short: as §1

Variant	self-cleavage kobs at 40 uM GlcN6P (glucosamine-6-phosphate [1]) [s⁻¹]	self-cleavage kobs at 10000 uM GlcN6P (glucosamine-6-phosphate [2]) [s⁻¹]	self-cleavage kobs at 160 uM GlcN6P (glucosamine-6-phosphate [3]) [s⁻¹]	self-cleavage kobs at 640 uM GlcN6P (glucosamine-6-phosphate [4]) [s⁻¹]	self-cleavage kobs at 2500 uM GlcN6P (glucosamine-6-phosphate [5]) [s⁻¹]
U30C G40A G44U	< 1e-05	< 1e-05			
U30C U45G	< 1e-05		< 1e-05		
U30C U49A G60C	< 1e-05			< 1e-05	
U30C U49C	< 1e-05	< 1e-05	< 1e-05		
U30C U55A U57G	< 1e-05				
U30G A48C C70G	< 1e-05				
U30G C50A	< 1e-05				
U30G G32A	5.91e-05 ± 1.1e-05				
U30G G35A A64U	< 1e-05				
U30G G35C	< 1e-05	< 1e-05	< 1e-05	< 1e-05	< 1e-05
U30G G40U	3.53e-05 ± 1.3e-05	0.000668 ± 7.3e-05	6.94e-05 ± 1.5e-05	0.000212 ± 2.9e-05	0.000615 ± 0.00014
U30G G44A	< 1e-05				
U30G G44U	< 1e-05	4.23e-05 ± 1.3e-05	< 1e-05		
U30G G51A	< 1e-05		< 1e-05		
U30G G59U C71A	< 1e-05	< 1e-05			
U30G U49A	< 1e-05	< 1e-05	< 1e-05	< 1e-05	
U31A A42G C50U G51U C61G	< 1e-05	< 1e-05			
U31A A48C	< 1e-05	0.00014 ± 2.4e-05	< 1e-05	4.87e-05 ± 1.3e-05	7.42e-05 ± 1.5e-05
U31A C61G A64C	< 1e-05	< 1e-05		< 1e-05	< 1e-05
U31A C67G C68A	< 1e-05	< 1e-05			
U31A G32U A42C U69A C71A	< 1e-05				< 1e-05
U31A G35C	< 1e-05	< 1e-05	< 1e-05	< 1e-05	< 1e-05
U31A G37A C68U	< 1e-05				
U31C A33G	< 1e-05	< 1e-05	< 1e-05	< 1e-05	
U31C G32A G60U	< 1e-05				
